The text below walks through data of the supplement of paper PMC12230231.

± gives the standard deviation of the averaged measurements. Restriction of a single-cycle SIVsab GFP reporter by TRIM5α v1-loop variants in CRFK cells. Human variants: read share among cells still uninfected after two challenges over input, higher = gained restriction. Rhesus variants: share among infected cells over input, higher = lost restriction. Reporter dose not given per row. No active / inactive call per row; the paper calls a change when both replicates lie above its controls (mean + 2 SD of stop or wild-type variants, or the top frameshift score). Residues outside the varied loop are taken from Swiss-Prot. The paper reads the human single-substitution scores as noise; they and the rhesus combinations repeat poorly (rank correlation 0.3 to 0.4), indel scores repeat only for the top variants, rhesus substitutions well (0.9).

For this series, the system named is SIVsab (simian immunodeficiency virus of sabaeus monkeys), single-cycle GFP reporter, in CRFK cells. In words: enrichment among uninfected cells over input (fold); higher = stronger restriction. The settings on record: library: human / rhesus combinations. The protocol: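 Pools of CRFK cells expressing variants of the TRIM5α v1 loop were challenged with the single-cycle reporter, sorted by GFP and sequenced; mean of two replicates.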
“MASGILVNVKEEVTCPICLELLTQPLSLDCGHSFCQACLTANHKKSMLDKGESSCPVCRISYQPENIRPNRHVANIVEKLREVKLSPEGQKVDHCARHGEKLLLFCQEDGKVICWLCERSQEHRGHHTFLTEEVAREYQVKLQAALEMLRQKQQEAEELEADIREEKASWKTQIQYDKTNVLADFEQLRDILDWEESNELQNLEKEEEDILKSLTNSETEMVQQTQSLRELISDLEHRLQGSVMELLQGVDGVIKRTENVTLKKPETFPKNQRRVFRAPDLKGMLEVFRELTDVRRYWVDVTVAPNNISCAVISEDKRQVSSPKPQIIYGARGTLFTFPSLVNFNYCTGILGSQSITSGKHYWEVDVSKKTAWILGVCAGFQPDAMCNIEKNENYQPKYGYWVIGLEEGVKCSAFQDSSFHTPSVPFIVPLSVIICPDRVGVFLDYEACTVSFFNITNHGFLIYKFSHCSFSQPVFPYLNPRKCGVPMTLCSPSS [human TRIM5α, 330-340 = GARGTLFTFPSLV]”: the enrichment came out at 0.477 ± 0.21.
“MASGILVNVKEEVTCPICLELLTQPLSLDCGHSFCQACLTANHKKSMLDKGESSCPVCRISYQPENIRPNRHVANIVEKLREVKLSPEGQKVDHCARHGEKLLLFCQEDGKVICWLCERSQEHRGHHTFLTEEVAREYQVKLQAALEMLRQKQQEAEELEADIREEKASWKTQIQYDKTNVLADFEQLRDILDWEESNELQNLEKEEEDILKSLTNSETEMVQQTQSLRELISDLEHRLQGSVMELLQGVDGVIKRTENVTLKKPETFPKNQRRVFRAPDLKGMLEVFRELTDVRRYWVDVTVAPNNISCAVISEDKRQVSSPKPQIIYGARGTLFTFPTFTNFNYCTGILGSQSITSGKHYWEVDVSKKTAWILGVCAGFQPDAMCNIEKNENYQPKYGYWVIGLEEGVKCSAFQDSSFHTPSVPFIVPLSVIICPDRVGVFLDYEACTVSFFNITNHGFLIYKFSHCSFSQPVFPYLNPRKCGVPMTLCSPSS [human TRIM5α, 330-340 = GARGTLFTFPTFT]”: the enrichment was determined as 0.0963 ± 0.078.
For the sequence “MASGILVNVKEEVTCPICLELLTQPLSLDCGHSFCQACLTANHKKSMLDKGESSCPVCRISYQPENIRPNRHVANIVEKLREVKLSPEGQKVDHCARHGEKLLLFCQEDGKVICWLCERSQEHRGHHTFLTEEVAREYQVKLQAALEMLRQKQQEAEELEADIREEKASWKTQIQYDKTNVLADFEQLRDILDWEESNELQNLEKEEEDILKSLTNSETEMVQQTQSLRELISDLEHRLQGSVMELLQGVDGVIKRTENVTLKKPETFPKNQRRVFRAPDLKGMLEVFRELTDVRRYWVDVTVAPNNISCAVISEDKRQVSSPKPQIIYGARGTLFTFPTFVNFNYCTGILGSQSITSGKHYWEVDVSKKTAWILGVCAGFQPDAMCNIEKNENYQPKYGYWVIGLEEGVKCSAFQDSSFHTPSVPFIVPLSVIICPDRVGVFLDYEACTVSFFNITNHGFLIYKFSHCSFSQPVFPYLNPRKCGVPMTLCSPSS [human TRIM5α, 330-340 = GARGTLFTFPTFV]”, the enrichment came out at 0.237 ± 0.095.
Consider “MASGILVNVKEEVTCPICLELLTQPLSLDCGHSFCQACLTANHKKSMLDKGESSCPVCRISYQPENIRPNRHVANIVEKLREVKLSPEGQKVDHCARHGEKLLLFCQEDGKVICWLCERSQEHRGHHTFLTEEVAREYQVKLQAALEMLRQKQQEAEELEADIREEKASWKTQIQYDKTNVLADFEQLRDILDWEESNELQNLEKEEEDILKSLTNSETEMVQQTQSLRELISDLEHRLQGSVMELLQGVDGVIKRTENVTLKKPETFPKNQRRVFRAPDLKGMLEVFRELTDVRRYWVDVTVAPNNISCAVISEDKRQVSSPKPQIIYGARGTLFTFPTLTNFNYCTGILGSQSITSGKHYWEVDVSKKTAWILGVCAGFQPDAMCNIEKNENYQPKYGYWVIGLEEGVKCSAFQDSSFHTPSVPFIVPLSVIICPDRVGVFLDYEACTVSFFNITNHGFLIYKFSHCSFSQPVFPYLNPRKCGVPMTLCSPSS [human TRIM5α, 330-340 = GARGTLFTFPTLT]”, for which the enrichment came to 0.0556 ± 0.078.
Regarding “MASGILVNVKEEVTCPICLELLTQPLSLDCGHSFCQACLTANHKKSMLDKGESSCPVCRISYQPENIRPNRHVANIVEKLREVKLSPEGQKVDHCARHGEKLLLFCQEDGKVICWLCERSQEHRGHHTFLTEEVAREYQVKLQAALEMLRQKQQEAEELEADIREEKASWKTQIQYDKTNVLADFEQLRDILDWEESNELQNLEKEEEDILKSLTNSETEMVQQTQSLRELISDLEHRLQGSVMELLQGVDGVIKRTENVTLKKPETFPKNQRRVFRAPDLKGMLEVFRELTDVRRYWVDVTVAPNNISCAVISEDKRQVSSPKPQIIYGARGTLFTFPTLVNFNYCTGILGSQSITSGKHYWEVDVSKKTAWILGVCAGFQPDAMCNIEKNENYQPKYGYWVIGLEEGVKCSAFQDSSFHTPSVPFIVPLSVIICPDRVGVFLDYEACTVSFFNITNHGFLIYKFSHCSFSQPVFPYLNPRKCGVPMTLCSPSS [human TRIM5α, 330-340 = GARGTLFTFPTLV]”, the enrichment amounted to 0.396 ± 0.41.
On to “MASGILVNVKEEVTCPICLELLTQPLSLDCGHSFCQACLTANHKKSMLDKGESSCPVCRISYQPENIRPNRHVANIVEKLREVKLSPEGQKVDHCARHGEKLLLFCQEDGKVICWLCERSQEHRGHHTFLTEEVAREYQVKLQAALEMLRQKQQEAEELEADIREEKASWKTQIQYDKTNVLADFEQLRDILDWEESNELQNLEKEEEDILKSLTNSETEMVQQTQSLRELISDLEHRLQGSVMELLQGVDGVIKRTENVTLKKPETFPKNQRRVFRAPDLKGMLEVFRELTDVRRYWVDVTVAPNNISCAVISEDKRQVSSPKPQIIYGARGTLFTFQSFTNFNYCTGILGSQSITSGKHYWEVDVSKKTAWILGVCAGFQPDAMCNIEKNENYQPKYGYWVIGLEEGVKCSAFQDSSFHTPSVPFIVPLSVIICPDRVGVFLDYEACTVSFFNITNHGFLIYKFSHCSFSQPVFPYLNPRKCGVPMTLCSPSS [human TRIM5α, 330-340 = GARGTLFTFQSFT]”, for which the enrichment stood at 0.137 ± 0.16.
Regarding “MASGILVNVKEEVTCPICLELLTQPLSLDCGHSFCQACLTANHKKSMLDKGESSCPVCRISYQPENIRPNRHVANIVEKLREVKLSPEGQKVDHCARHGEKLLLFCQEDGKVICWLCERSQEHRGHHTFLTEEVAREYQVKLQAALEMLRQKQQEAEELEADIREEKASWKTQIQYDKTNVLADFEQLRDILDWEESNELQNLEKEEEDILKSLTNSETEMVQQTQSLRELISDLEHRLQGSVMELLQGVDGVIKRTENVTLKKPETFPKNQRRVFRAPDLKGMLEVFRELTDVRRYWVDVTVAPNNISCAVISEDKRQVSSPKPQIIYGARGTLFTFQSFVNFNYCTGILGSQSITSGKHYWEVDVSKKTAWILGVCAGFQPDAMCNIEKNENYQPKYGYWVIGLEEGVKCSAFQDSSFHTPSVPFIVPLSVIICPDRVGVFLDYEACTVSFFNITNHGFLIYKFSHCSFSQPVFPYLNPRKCGVPMTLCSPSS [human TRIM5α, 330-340 = GARGTLFTFQSFV]”, the enrichment was found to be 0.282 ± 0.25.
On to “MASGILVNVKEEVTCPICLELLTQPLSLDCGHSFCQACLTANHKKSMLDKGESSCPVCRISYQPENIRPNRHVANIVEKLREVKLSPEGQKVDHCARHGEKLLLFCQEDGKVICWLCERSQEHRGHHTFLTEEVAREYQVKLQAALEMLRQKQQEAEELEADIREEKASWKTQIQYDKTNVLADFEQLRDILDWEESNELQNLEKEEEDILKSLTNSETEMVQQTQSLRELISDLEHRLQGSVMELLQGVDGVIKRTENVTLKKPETFPKNQRRVFRAPDLKGMLEVFRELTDVRRYWVDVTVAPNNISCAVISEDKRQVSSPKPQIIYGARGTLFTFQSLTNFNYCTGILGSQSITSGKHYWEVDVSKKTAWILGVCAGFQPDAMCNIEKNENYQPKYGYWVIGLEEGVKCSAFQDSSFHTPSVPFIVPLSVIICPDRVGVFLDYEACTVSFFNITNHGFLIYKFSHCSFSQPVFPYLNPRKCGVPMTLCSPSS [human TRIM5α, 330-340 = GARGTLFTFQSLT]”, for which the enrichment came out at 0.225 ± 0.079.
Consider “MASGILVNVKEEVTCPICLELLTQPLSLDCGHSFCQACLTANHKKSMLDKGESSCPVCRISYQPENIRPNRHVANIVEKLREVKLSPEGQKVDHCARHGEKLLLFCQEDGKVICWLCERSQEHRGHHTFLTEEVAREYQVKLQAALEMLRQKQQEAEELEADIREEKASWKTQIQYDKTNVLADFEQLRDILDWEESNELQNLEKEEEDILKSLTNSETEMVQQTQSLRELISDLEHRLQGSVMELLQGVDGVIKRTENVTLKKPETFPKNQRRVFRAPDLKGMLEVFRELTDVRRYWVDVTVAPNNISCAVISEDKRQVSSPKPQIIYGARGTLFTFQSLVNFNYCTGILGSQSITSGKHYWEVDVSKKTAWILGVCAGFQPDAMCNIEKNENYQPKYGYWVIGLEEGVKCSAFQDSSFHTPSVPFIVPLSVIICPDRVGVFLDYEACTVSFFNITNHGFLIYKFSHCSFSQPVFPYLNPRKCGVPMTLCSPSS [human TRIM5α, 330-340 = GARGTLFTFQSLV]”, for which the enrichment amounted to 0.0665 ± 0.093.
For the sequence “MASGILVNVKEEVTCPICLELLTQPLSLDCGHSFCQACLTANHKKSMLDKGESSCPVCRISYQPENIRPNRHVANIVEKLREVKLSPEGQKVDHCARHGEKLLLFCQEDGKVICWLCERSQEHRGHHTFLTEEVAREYQVKLQAALEMLRQKQQEAEELEADIREEKASWKTQIQYDKTNVLADFEQLRDILDWEESNELQNLEKEEEDILKSLTNSETEMVQQTQSLRELISDLEHRLQGSVMELLQGVDGVIKRTENVTLKKPETFPKNQRRVFRAPDLKGMLEVFRELTDVRRYWVDVTVAPNNISCAVISEDKRQVSSPKPQIIYGARGTLFTFQTFTNFNYCTGILGSQSITSGKHYWEVDVSKKTAWILGVCAGFQPDAMCNIEKNENYQPKYGYWVIGLEEGVKCSAFQDSSFHTPSVPFIVPLSVIICPDRVGVFLDYEACTVSFFNITNHGFLIYKFSHCSFSQPVFPYLNPRKCGVPMTLCSPSS [human TRIM5α, 330-340 = GARGTLFTFQTFT]”, the enrichment came out at 0.244 ± 0.065.
Under “MASGILVNVKEEVTCPICLELLTQPLSLDCGHSFCQACLTANHKKSMLDKGESSCPVCRISYQPENIRPNRHVANIVEKLREVKLSPEGQKVDHCARHGEKLLLFCQEDGKVICWLCERSQEHRGHHTFLTEEVAREYQVKLQAALEMLRQKQQEAEELEADIREEKASWKTQIQYDKTNVLADFEQLRDILDWEESNELQNLEKEEEDILKSLTNSETEMVQQTQSLRELISDLEHRLQGSVMELLQGVDGVIKRTENVTLKKPETFPKNQRRVFRAPDLKGMLEVFRELTDVRRYWVDVTVAPNNISCAVISEDKRQVSSPKPQIIYGARGTLFTFQTFVNFNYCTGILGSQSITSGKHYWEVDVSKKTAWILGVCAGFQPDAMCNIEKNENYQPKYGYWVIGLEEGVKCSAFQDSSFHTPSVPFIVPLSVIICPDRVGVFLDYEACTVSFFNITNHGFLIYKFSHCSFSQPVFPYLNPRKCGVPMTLCSPSS [human TRIM5α, 330-340 = GARGTLFTFQTFV]” stands 0.124 ± 0.17; under “MASGILVNVKEEVTCPICLELLTQPLSLDCGHSFCQACLTANHKKSMLDKGESSCPVCRISYQPENIRPNRHVANIVEKLREVKLSPEGQKVDHCARHGEKLLLFCQEDGKVICWLCERSQEHRGHHTFLTEEVAREYQVKLQAALEMLRQKQQEAEELEADIREEKASWKTQIQYDKTNVLADFEQLRDILDWEESNELQNLEKEEEDILKSLTNSETEMVQQTQSLRELISDLEHRLQGSVMELLQGVDGVIKRTENVTLKKPETFPKNQRRVFRAPDLKGMLEVFRELTDVRRYWVDVTVAPNNISCAVISEDKRQVSSPKPQIIYGARGTLFTFQTLTNFNYCTGILGSQSITSGKHYWEVDVSKKTAWILGVCAGFQPDAMCNIEKNENYQPKYGYWVIGLEEGVKCSAFQDSSFHTPSVPFIVPLSVIICPDRVGVFLDYEACTVSFFNITNHGFLIYKFSHCSFSQPVFPYLNPRKCGVPMTLCSPSS [human TRIM5α, 330-340 = GARGTLFTFQTLT]”, 0.11 ± 0.11.
